Measured values reported in the supplement of paper PMC8728848.
Some of the results follow.

Legend:
Experiment in all cases: glycan array binding signal (z-score within array); higher = stronger binding
Conditions in all cases: glycan notation: IUPAC condensed, linker removed
[1] = target: Neu5Ac(a2-3)Gal(b1-3)GalNAc
Summary of the method: (§1)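 Glycan array data were curated from 3228 arrays in the Consortium for Functional Glycomics database and kept only where the protein sequence was available. Glycan names were converted to IUPAC-condensed notation, and columns mapping to the same glycan were averaged. The binding signal is a within-array Z-score, averaged across arrays of the same protein sequence at different concentrations or buffers and across linkers. Negative Z-scores can be read as non-binding.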

[2] = target: Neu5Ac(a2-3)Gal(b1-3)GalNAc(b1-3)Gal(a1-4)Gal(b1-4)Glc
Summary of the method: as §1

[3] = target: Neu5Ac(a2-3)Gal(b1-3)GalNAc(b1-4)[Neu5Ac(a2-3)]Gal(b1-4)Glc
Summary of the method: as §1

[4] = target: Neu5Ac(a2-3)Gal(b1-3)GalNAc(b1-4)[Neu5Ac(a2-8)Neu5Ac(a2-3)]Gal(b1-4)Glc
Summary of the method: as §1

[5] = target: Neu5Ac(a2-3)Gal(b1-3)GalNAc6S
Summary of the method: as §1

[6] = target: Neu5Ac(a2-3)Gal(b1-3)GlcNAc
Summary of the method: as §1

[7] = target: Neu5Ac(a2-3)Gal(b1-3)GlcNAc(b1-2)Man
Summary of the method: as §1

[8] = target: Neu5Ac(a2-3)Gal(b1-3)GlcNAc(b1-2)Man(a1-3)[GlcNAc(b1-4)][Neu5Ac(a2-3)Gal(b1-3)GlcNAc(b1-2)Man(a1-6)]Man(b1-4)GlcNAc(b1-4)GlcNAc
Summary of the method: as §1

[9] = target: Neu5Ac(a2-3)Gal(b1-3)GlcNAc(b1-2)Man(a1-3)[Neu5Ac(a2-3)Gal(b1-3)GlcNAc(b1-2)Man(a1-6)]Man(b1-4)GlcNAc(b1-4)GlcNAc
Summary of the method: as §1

[10] = target: Neu5Ac(a2-3)Gal(b1-3)GlcNAc(b1-3)Gal(b1-3)GlcNAc
Summary of the method: as §1

[11] = target: Neu5Ac(a2-3)Gal(b1-3)GlcNAc(b1-3)Gal(b1-4)GlcNAc
Summary of the method: as §1

[12] = target: Neu5Ac(a2-3)Gal(b1-3)GlcNAc(b1-3)GalNAc
Summary of the method: as §1

[13] = target: Neu5Ac(a2-3)Gal(b1-3)GlcNAc(b1-4)Gal(b1-4)Glc
Summary of the method: as §1

[14] = target: Neu5Ac(a2-3)Gal(b1-3)GlcNAc(b1-6)GalNAc
Summary of the method: as §1

[15] = target: Neu5Ac(a2-3)Gal(b1-3)GlcNAc6S
Summary of the method: as §1

[16] = target: Neu5Ac(a2-3)Gal(b1-3)[Fuc(a1-4)]GlcNAc
Summary of the method: as §1

[17] = target: Neu5Ac(a2-3)Gal(b1-3)[Fuc(a1-4)]GlcNAc(b1-3)Gal(b1-3)[Fuc(a1-4)]GlcNAc
Summary of the method: as §1

[18] = target: Neu5Ac(a2-3)Gal(b1-3)[Fuc(a1-4)]GlcNAc(b1-3)Gal(b1-4)[Fuc(a1-3)]GlcNAc
Summary of the method: as §1

[19] = target: Neu5Ac(a2-3)Gal(b1-3)[GlcNAc(b1-6)]GalNAc
Summary of the method: as §1

[20] = target: Neu5Ac(a2-3)Gal(b1-3)[Neu5Ac(a2-6)]GalNAc
Summary of the method: as §1

[21] = target: Neu5Ac(a2-3)Gal(b1-3)[Neu5Ac(a2-6)]GlcNAc(b1-3)[Fuc(a1-3)[Gal(b1-4)]GlcNAc(b1-6)]Gal(b1-4)Glc
Summary of the method: as §1

[22] = target: Neu5Ac(a2-3)Gal(b1-3)]Neu5Ac(a2-3)Gal(b1-4)]GlcNAc
Summary of the method: as §1

Neu5Ac(a2-3)Gal(b1-4)Glc = target: Neu5Ac(a2-3)Gal(b1-4)Glc
Summary of the method: as §1

[23] = target: Neu5Ac(a2-3)Gal(b1-4)GlcNAc
Summary of the method: as §1

[24] = target: Neu5Ac(a2-3)Gal(b1-4)GlcNAc(b1-2)Man
Summary of the method: as §1

[25] = target: Neu5Ac(a2-3)Gal(b1-4)GlcNAc(b1-2)Man(a1-3)[GlcNAc(b1-4)][Neu5Ac(a2-3)Gal(b1-4)GlcNAc(b1-2)Man(a1-6)]Man(b1-4)GlcNAc(b1-4)GlcNAc
Summary of the method: as §1

[26] = target: Neu5Ac(a2-3)Gal(b1-4)GlcNAc(b1-2)Man(a1-3)[Neu5Ac(a2-3)Gal(b1-4)GlcNAc(b1-2)Man(a1-6)]Man(b1-4)GlcNAc(b1-4)GlcNAc
Summary of the method: as §1

[27] = target: Neu5Ac(a2-3)Gal(b1-4)GlcNAc(b1-2)Man(a1-3)[Neu5Ac(a2-3)Gal(b1-4)GlcNAc(b1-2)Man(a1-6)]Man(b1-4)GlcNAc(b1-4)[Fuc(a1-6)]GlcNAc
Summary of the method: as §1

[28] = target: Neu5Ac(a2-3)Gal(b1-4)GlcNAc(b1-2)Man(a1-3)[Neu5Ac(a2-6)Gal(b1-4)GlcNAc(b1-2)Man(a1-6)]Man(b1-4)GlcNAc(b1-4)GlcNAc
Summary of the method: as §1

[29] = target: Neu5Ac(a2-3)Gal(b1-4)GlcNAc(b1-2)[Neu5Ac(a2-3)Gal(b1-4)GlcNAc(b1-4)]Man(a1-3)[GlcNAc(b1-4)][Neu5Ac(a2-3)Gal(b1-4)GlcNAc(b1-2)[Neu5Ac(a2-3)Gal(b1-4)GlcNAc(b1-6)]Man(a1-6)]Man(b1-4)GlcNAc(b1-4)GlcNAc
Summary of the method: as §1

[30] = target: Neu5Ac(a2-3)Gal(b1-4)GlcNAc(b1-2)[Neu5Ac(a2-3)Gal(b1-4)GlcNAc(b1-4)]Man(a1-3)[GlcNAc(b1-4)][Neu5Ac(a2-3)Gal(b1-4)GlcNAc(b1-4)Man(a1-6)]Man(b1-4)GlcNAc(b1-4)GlcNAc
Summary of the method: as §1

[31] = target: Neu5Ac(a2-3)Gal(b1-4)GlcNAc(b1-2)[Neu5Ac(a2-3)Gal(b1-4)GlcNAc(b1-6)]Man(a1-6)[Neu5Ac(a2-3)Gal(b1-4)GlcNAc(b1-2)Man(a1-3)]Man(b1-4)GlcNAc(b1-4)GlcNAc
Summary of the method: as §1

[32] = target: Neu5Ac(a2-3)Gal(b1-4)GlcNAc(b1-2)[Neu5Ac(a2-3)Gal(b1-4)GlcNAc(b1-6)]Man(a1-6)[Neu5Ac(a2-3)Gal(b1-4)GlcNAc(b1-2)Man(a1-3)][GlcNAc(b1-4)]Man(b1-4)GlcNAc(b1-4)GlcNAc
Summary of the method: as §1

[33] = target: Neu5Ac(a2-3)Gal(b1-4)GlcNAc(b1-3)Gal
Summary of the method: as §1

[34] = target: Neu5Ac(a2-3)Gal(b1-4)GlcNAc(b1-3)Gal(b1-3)GlcNAc
Summary of the method: as §1

[35] = target: Neu5Ac(a2-3)Gal(b1-4)GlcNAc(b1-3)Gal(b1-4)GlcNAc
Summary of the method: as §1

[36] = target: Neu5Ac(a2-3)Gal(b1-4)GlcNAc(b1-3)Gal(b1-4)GlcNAc(b1-2)Man(a1-3)[Neu5Ac(a2-3)Gal(b1-4)GlcNAc(b1-3)Gal(b1-4)GlcNAc(b1-2)Man(a1-6)]Man(b1-4)GlcNAc(b1-4)GlcNAc
Summary of the method: as §1

[37] = target: Neu5Ac(a2-3)Gal(b1-4)GlcNAc(b1-3)Gal(b1-4)GlcNAc(b1-3)Gal(b1-4)GlcNAc
Summary of the method: as §1

[38] = target: Neu5Ac(a2-3)Gal(b1-4)GlcNAc(b1-3)Gal(b1-4)GlcNAc(b1-3)Gal(b1-4)GlcNAc(b1-2)Man(a1-3)[Neu5Ac(a2-3)Gal(b1-4)GlcNAc(b1-3)Gal(b1-4)GlcNAc(b1-3)Gal(b1-4)GlcNAc(b1-2)Man(a1-6)]GalNAc
Summary of the method: as §1

[39] = target: Neu5Ac(a2-3)Gal(b1-4)GlcNAc(b1-3)Gal(b1-4)GlcNAc(b1-3)GalNAc
Summary of the method: as §1

[40] = target: Neu5Ac(a2-3)Gal(b1-4)GlcNAc(b1-3)Gal(b1-4)GlcNAc(b1-3)[Neu5Ac(a2-3)Gal(b1-4)GlcNAc(b1-3)Gal(b1-4)GlcNAc(b1-6)]GalNAc
Summary of the method: as §1

[41] = target: Neu5Ac(a2-3)Gal(b1-4)GlcNAc(b1-3)Gal(b1-4)GlcNAc(b1-6)[Gal(b1-3)]GalNAc
Summary of the method: as §1

[42] = target: Neu5Ac(a2-3)Gal(b1-4)GlcNAc(b1-3)Gal(b1-4)[Fuc(a1-3)]GlcNAc
Summary of the method: as §1

[43] = target: Neu5Ac(a2-3)Gal(b1-4)GlcNAc(b1-3)GalNAc
Summary of the method: as §1

[44] = target: Neu5Ac(a2-3)Gal(b1-4)GlcNAc(b1-3)[Neu5Ac(a2-3)Gal(b1-4)GlcNAc(b1-6)]GalNAc
Summary of the method: as §1

B1: AidA (Burkholderia cenocepacia) (protein)
chain: MSRVTDVLVSFDTETILKKYPNPSKNPAAPTLIDWRYVYMVTNQDNVISGQAGGELDLKAQVGDLIRWRETSLSLGFENQVVFYKFIGNVGNDLISTPTPRVAEASIPVPNTSKPEVPTCQKVANYYWSSECLKVGRVTYHFQFQIIDRNCQSQGCFSWDPFISIHN
- glycan array binding signal (z-score) [1]: -0.739
- glycan array binding signal (z-score) [2]: 1
- glycan array binding signal (z-score) [3]: -0.642
- glycan array binding signal (z-score) [4]: -0.849
- glycan array binding signal (z-score) [5]: 0.29
- glycan array binding signal (z-score) [6]: 0.059
- glycan array binding signal (z-score) [7]: -0.198
- glycan array binding signal (z-score) [8]: -0.017
- glycan array binding signal (z-score) [9]: 0.807
- glycan array binding signal (z-score) [10]: -0.146
- glycan array binding signal (z-score) [11]: 0.402
- glycan array binding signal (z-score) [12]: -0.595
- glycan array binding signal (z-score) [13]: -0.358
- glycan array binding signal (z-score) [14]: -0.685
- glycan array binding signal (z-score) [15]: -0.232
- glycan array binding signal (z-score) [16]: 0.146
- glycan array binding signal (z-score) [17]: -0.82
- glycan array binding signal (z-score) [18]: -0.303
- glycan array binding signal (z-score) [19]: -0.597
- glycan array binding signal (z-score) [20]: -0.099
- glycan array binding signal (z-score) [21]: -0.545
- glycan array binding signal (z-score) [22]: -0.396
- glycan array binding signal (z-score) (Neu5Ac(a2-3)Gal(b1-4)Glc): 1.04
- glycan array binding signal (z-score) [23]: -0.138
- glycan array binding signal (z-score) [24]: 1.58
- glycan array binding signal (z-score) [25]: -0.361
- glycan array binding signal (z-score) [26]: -1.1
- glycan array binding signal (z-score) [27]: -0.317
- glycan array binding signal (z-score) [28]: -0.742
- glycan array binding signal (z-score) [29]: -0.793
- glycan array binding signal (z-score) [30]: 0.162
- glycan array binding signal (z-score) [31]: -0.231
- glycan array binding signal (z-score) [32]: -0.721
- glycan array binding signal (z-score) [33]: 0.027
- glycan array binding signal (z-score) [34]: 0.211
- glycan array binding signal (z-score) [35]: -0.255
- glycan array binding signal (z-score) [36]: -0.048
- glycan array binding signal (z-score) [37]: -0.05
- glycan array binding signal (z-score) [38]: -0.338
- glycan array binding signal (z-score) [39]: -0.359
- glycan array binding signal (z-score) [40]: -0.837
- glycan array binding signal (z-score) [41]: -0.559
- glycan array binding signal (z-score) [42]: -0.026
- glycan array binding signal (z-score) [43]: -0.359
- glycan array binding signal (z-score) [44]: -0.557
